Results: PubChem BioAssay AID485294 (National Center for Advancing Translational Sciences (NCATS), 2010)
The campaign covered roughly 370,000 compounds. About 150 (0.041%) were called active. The inconclusive results got no clear call from the source; some entries with a clear call stand among them for comparison. The call rests on the fitted dose curve; in most records, active means well fitted inhibition curve with a large enough effect; inconclusive means small, poorly fitted or top-dose-only effect; inactive means flat fitted curve, though single readings scatter. No potency is given beside an inconclusive call; the fits are too rough.

molecular target: Beta-lactamase (Escherichia coli (strain K12)) (UniProt P00811); test: qHTS Inhibitors of AmpC Beta-Lactamase (assay with detergent); conditions: AmpC hydrolysis of nitrocefin, absorbance 480 nm, 0.01% Triton; activity change, negative = inhibition: at 114 µM (top of the series); further: nearly all actives have a fitted effect of over 25% in size;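 on activity change, negative = inhibition: 0% = no-compound wells and -100% = no-enzyme wells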
Method in brief: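 AmpC (5.3 nM in the dispensed reagent) in 20 mM phosphate pH 7.0 with 0.01% (detergent screen) or 0.0001% Triton X-100 was preincubated with compounds for 15 min at room temperature. Nitrocefin was then added from an 800 uM solution, and hydrolysis was followed at 480 nm.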
Potency means the concentration at half of the fitted maximal effect; tags describe the fitted curve by direction and shape.

UniProt P00811, sequence (P00811 whole entry, looked up): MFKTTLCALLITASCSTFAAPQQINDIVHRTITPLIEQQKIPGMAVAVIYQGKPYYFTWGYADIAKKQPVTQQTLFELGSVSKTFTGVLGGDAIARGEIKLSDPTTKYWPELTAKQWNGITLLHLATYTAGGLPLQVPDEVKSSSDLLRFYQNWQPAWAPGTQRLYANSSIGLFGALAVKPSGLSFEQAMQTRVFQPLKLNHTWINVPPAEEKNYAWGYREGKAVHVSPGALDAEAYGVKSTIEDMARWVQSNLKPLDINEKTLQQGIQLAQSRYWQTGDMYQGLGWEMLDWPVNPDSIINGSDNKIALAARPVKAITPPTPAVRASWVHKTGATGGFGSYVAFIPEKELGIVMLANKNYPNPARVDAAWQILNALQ

With `CC1C[C@@]2(NC(=O)NC2=O)C(C)CN1C` (some centres undefined) as the molecule, how does the Potency read?
The Potency was inconclusive [inhibitor, partial curve, poor fit].

For `COc1ccc(S(=O)(=O)N2CCCOC2CNC(=O)C(=O)NCCCN2CCOCC2)cc1` (centres undefined), which “activity change, negative = inhibition” value is on record?
Its value is inactive: -3.55%.

With `CCCCn1c(N)c(N(C(=O)CSc2nnnn2-c2ccccc2C)C2CCCC2)c(=O)[nH]c1=O` as the molecule, how does the Potency read?
The Potency was inconclusive [inhibitor, full curve].

For `Cc1ccccc1CNC(=O)c1ccc(-c2nc(CS(=O)(=O)c3ccccc3)c(C)o2)cc1`, which “activity change, negative = inhibition” value is on record?
The value was inactive: 22.3%.

For `COC(=O)c1cc(OC)c(OC)cc1NC(=O)CC1CCCCC1`, which “activity change, negative = inhibition” value is on record?
The value was inactive: 3.48%.

With `Cc1ccc(CN2CC(C(=O)NNC(=O)Cn3ccc(C(F)(F)F)n3)CC2=O)cc1` (centres undefined) as the molecule, how does the Potency read?
The Potency was inconclusive [inhibitor, full curve, poor fit].

For `COc1ccc(N2CCN(C(=O)C(Cc3ccccc3)n3cccc3)CC2)cc1` (centres undefined), which “activity change, negative = inhibition” value is on record?
The value was inactive: -22.7%.

Which Potency does the source give for `O=C(O)C(c1ccccc1)N1C(=O)/C(=C\c2ccc(-c3ccc(Br)cc3)o2)SC1=S` (centres undefined) here?
The Potency was inconclusive [inhibitor, partial curve].

With `CCCCN(C)C(=O)C(Cc1ccccc1)NS(=O)(=O)c1ccc2c(c1)c(=O)n(C)c(=O)n2C` (centres undefined) as the molecule, how does the Potency read?
The Potency was inconclusive [inhibitor, full curve, poor fit].

How did the Potency turn out when `COc1ccc(CNS(=O)(=O)CCNC(=O)c2ccccc2)cc1` was run?
Its Potency is inconclusive [inhibitor, full curve].

`CC(Oc1cccc([N+](=O)[O-])c1)C(=O)NCCC1=CCCCC1` (centres undefined) was tested. Which Potency did it give?
The Potency was inconclusive [inhibitor, full curve].

`CCCc1nc2sc3c(=O)[nH]cnc3c2c2c1CCCC2` was tested. Which “activity change, negative = inhibition” value did it give?
Its value is inactive: -4.49%.

With `NC(=O)CC(NC(=O)c1ccccc1)c1ccc(N2CCc3ccccc3C2)c([N+](=O)[O-])c1` (centres undefined) as the molecule, how does the Potency read?
The Potency was inconclusive [inhibitor, full curve].

How did the Potency turn out when `COc1ccccc1N1CCN(C2CCN(C(=O)c3cccs3)CC2)CC1` was run?
Its Potency is inconclusive [inhibitor, full curve, poor fit].

`Cc1oc(-c2ccccc2F)nc1CS(=O)(=O)CC(=O)N1CCCCCC1` was tested. Which Potency did it give?
Its Potency is inconclusive [inhibitor, partial curve].

With `COc1ccc(CN2CCN(Cc3nc4ccccc4s3)CC2CCO)c(C)c1C` (centres undefined) as the molecule, how does the “activity change, negative = inhibition” value read?
The value was inactive: 0.939%.

With `COc1cccc(C(c2sc3nc(C)nn3c2O)N2CCN(c3ccccc3F)CC2)c1` (centres undefined) as the molecule, how does the “activity change, negative = inhibition” value read?
The value was inactive: -7.13%.

For `CCOC(=O)C1CCCN(c2nc3ccccc3nc2C(C#N)C(=O)OCC)C1` (centres undefined), which Potency is on record?
Its Potency is inconclusive [inhibitor, partial curve].

`O=C(CN1C(=O)CCS(=O)(=O)c2ccccc21)Nc1cccc(Cl)c1` was tested. Which Potency did it give?
The Potency was inconclusive [inhibitor, partial curve].

`Cc1ccc(N=c2c([N+](=O)[O-])nn(-c3ccc(Cl)cc3)n2O)cc1C` was tested. Which “activity change, negative = inhibition” value did it give?
Its value is inactive: 4.78%.

`O=C(Nc1ccccc1C(=O)O)c1ccc(NC(=O)C2CC2)cc1` was tested. Which “activity change, negative = inhibition” value did it give?
The value was inactive: -6.67%.

How did the “activity change, negative = inhibition” value turn out when `O=C1CC[C@@]2(O)[C@H]3Cc4ccc(O)c5c4[C@@]2(CCN3CC2CC2)[C@H]1O5` was run?
Its value is inactive: -11.5%.

With `O=C(Nc1c(-c2ccccc2)nc2ccc(Cl)cn12)c1cccs1` as the molecule, how does the Potency read?
The Potency was inconclusive [inhibitor, full curve].

For `COCCOC(=O)c1[nH]c2c(c1C)C(=O)CC(c1cc(OC)ccc1OC)C2` (centres undefined), which Potency is on record?
Its Potency is inconclusive [inhibitor, full curve].

How did the “activity change, negative = inhibition” value turn out when `COc1cc2c(c3oc(-c4ccccc4)cc(=O)c13)C=CC(C)(C)O2` was run?
Its value is inactive: -6.77%.

How did the “activity change, negative = inhibition” value turn out when `Cc1cc(-c2csc(NC(=O)c3ccc(=O)n(C)n3)n2)c(C)n1CC1CCCO1` (centres undefined) was run?
Its value is inactive: -2.87%.

For `C=CCc1ccccc1OCC(O)CN1CCN(c2ccc(C)cc2)CC1` (centres undefined), which “activity change, negative = inhibition” value is on record?
The value was inactive: -6.89%.

How did the “activity change, negative = inhibition” value turn out when `Cc1ccc(S(=O)(=O)N(C)C)cc1NC(=O)COC(=O)COc1ccc2c(c1)CCC2` was run?
The value was inactive: -8.93%.

Which “activity change, negative = inhibition” value does the source give for `CCc1ccc2[nH]c(C(=O)Nc3ccc4c(c3)OCO4)cc2c1` here?
Its value is inactive: -1.6%.

`CC1=C(C(=O)Nc2ccc(C)cc2C)C(c2ccc(C)o2)NC(=O)N1` (centres undefined) was tested. Which Potency did it give?
The Potency was inconclusive [inhibitor, single point].

How did the Potency turn out when `Nc1ccccc1Nc1ccc([N+](=O)[O-])cc1[N+](=O)[O-]` was run?
Its Potency is inconclusive [inhibitor, partial curve].

`O=C(OCC1OC2OC3(CCCCC3)OC2C2OC3(CCCCC3)OC12)c1ccccc1` (centres undefined) was tested. Which Potency did it give?
The Potency was inconclusive [inhibitor, full curve].

Which Potency does the source give for `CN(C)CCCN(C(=O)c1ccc(S(=O)(=O)N2CCc3ccccc3C2)cc1)c1nc2c(F)cc(F)cc2s1` here?
The Potency was inconclusive [inhibitor, full curve, poor fit].

`CC1(C)SC2[C@H](NC(=O)C(NC(=O)N3CCNC3=O)c3ccccc3)C(=O)N2C1C(=O)O` (some centres undefined) was tested. Which Potency did it give?
Its Potency is inconclusive [inhibitor, full curve, poor fit].

With `COC(=O)CCC(=O)NNC(=O)CCCOc1ccc(Cl)cc1Cl` as the molecule, how does the “activity change, negative = inhibition” value read?
Its value is inactive: 0.657%.

Which Potency does the source give for `O=C(COC(=O)c1cccc(S(=O)(=O)N2CCc3ccccc32)c1)NC1CCS(=O)(=O)C1` (centres undefined) here?
The Potency was inconclusive [inhibitor, partial curve, poor fit].

With `Cc1cc(C(=O)COC(=O)CN=C2NS(=O)(=O)c3ccccc32)c(C)n1CCc1ccc(Cl)cc1` as the molecule, how does the Potency read?
The Potency was inconclusive [inhibitor, full curve].

How did the “activity change, negative = inhibition” value turn out when `CCOC(=O)C1CCCN(S(=O)(=O)c2ccc(S(=O)(=O)N3CCCC3)cc2)C1` (centres undefined) was run?
Its value is inactive: -15.9%.

`CCCc1ccc(-c2c(C)sc(NC(=O)c3ccnn3C)c2C#N)cc1` was tested. Which Potency did it give?
The Potency was inconclusive [inhibitor, full curve, poor fit].

With `COc1ccc(CCNC(=O)c2cc(CC(C)C)on2)cc1OC` as the molecule, how does the “activity change, negative = inhibition” value read?
Its value is inactive: 12.7%.

With `CCOC(=O)c1ccccc1NC(=O)Cn1c(-c2nonc2N)nc2ccccc21` as the molecule, how does the Potency read?
Its Potency is inconclusive [inhibitor, full curve, poor fit].

`CC(C)OC(=O)CC12CN3CC(CC(=O)OC(C)C)(CN(C1)C(=O)c1ccccc1C3=O)C2=O` was tested. Which Potency did it give?
Its Potency is inconclusive [inhibitor, full curve, poor fit].

With `Cc1ccccc1C(=O)NCC(=O)NCC1(N2CCOCC2)CCCCC1` as the molecule, how does the Potency read?
Its Potency is inconclusive [inhibitor, full curve].

Which “activity change, negative = inhibition” value does the source give for `CCN(CC)c1ccc(NC(=O)c2cnn(CC)c2)cc1` here?
The value was inactive: 0.815%.

Which “activity change, negative = inhibition” value does the source give for `COc1cccc(-c2nc(-c3ccc(NC(=O)c4cccnc4)cc3)no2)c1` here?
Its value is inactive: -11.8%.

How did the Potency turn out when `CC(=O)c1ccc(OCC(=O)NC2CCCN(Cc3ccccc3F)C2)cc1` (centres undefined) was run?
Its Potency is inconclusive [inhibitor, full curve, poor fit].

For `O=C(/C=C/c1ccco1)NCCc1ccccc1`, which “activity change, negative = inhibition” value is on record?
Its value is inactive: 6.08%.

For `Cc1cc(C)n2nc(-c3cccc(Br)c3)cc2n1`, which Potency is on record?
The Potency was inconclusive [inhibitor, full curve, poor fit].

Which “activity change, negative = inhibition” value does the source give for `CCOc1cc(Br)cc(/C=C2\SC(=Nc3ccccc3)NC2=O)c1O` here?
Its value is inactive: -8.01%.

With `CCc1ccccc1NC(=O)CN1C(=O)CCc2cc(S(=O)(=O)N3CCCCC3)ccc21` as the molecule, how does the Potency read?
Its Potency is inconclusive [inhibitor, partial curve, poor fit].

How did the “activity change, negative = inhibition” value turn out when `COc1cccc(/C=C2/C(=O)NN(c3ccc(C)c(C)c3)C2=O)c1` was run?
The value was inactive: 1.3%.

`c1ccc(SCCOCCN2CCc3ccccc3C2)cc1` was tested. Which “activity change, negative = inhibition” value did it give?
The value was inactive: -14.7%.

For `Cc1ccc(-n2c(C)nnc2SCC(=O)N2CCc3ccccc3C2)cc1C`, which Potency is on record?
The Potency was inconclusive [inhibitor, full curve, poor fit].

`S=C(NCCc1ccccc1)Nc1ccc(Br)cc1` was tested. Which Potency did it give?
The Potency was inconclusive [inhibitor, full curve, poor fit].

For `O=C(C1=NN[C@@H]2C(=O)N(c3cccc(F)c3)C(=O)[C@H]12)C(c1ccccc1)c1ccccc1`, which Potency is on record?
Its Potency is inconclusive [inhibitor, single point].

For `CCn1c(COC(=O)CNC(=O)c2cc(OC)c(OC)c(OC)c2)nc2cc(S(=O)(=O)N(C)C)ccc21`, which Potency is on record?
Its Potency is inconclusive [inhibitor, partial curve, poor fit].

How did the “activity change, negative = inhibition” value turn out when `COc1cccc(CC(NC(C)=O)C(=O)NC2CCN(c3c(Cc4ccccc4)c(C)nc4ncnn34)CC2)c1` (centres undefined) was run?
Its value is inactive: 0.311%.

With `COc1ccccc1N1CCN(C(=O)c2ccc(S(=O)(=O)N3CCCC3)cc2)CC1` as the molecule, how does the Potency read?
The Potency was inconclusive [inhibitor, full curve, poor fit].

How did the “activity change, negative = inhibition” value turn out when `Cn1c(SCC(=O)NCCN2C(=O)CSC2=O)nc2ccccc2c1=O` was run?
The value was inactive: -11.8%.

For `COc1ccccc1/C=C/c1nc(C#N)c(N2CCCCCC2)o1`, which “activity change, negative = inhibition” value is on record?
Its value is inactive: 14.7%.

With `Cc1ccc(C)c(S(=O)(=O)N2CCCC2CNC(=O)C(=O)NCCN2CCOCC2)c1` (centres undefined) as the molecule, how does the Potency read?
The Potency was inconclusive [inhibitor, full curve, poor fit].

With `COc1ccc(CN2CCCC(C(=O)N3CCc4ccccc4C3)C2)cc1OC` (centres undefined) as the molecule, how does the Potency read?
Its Potency is inconclusive [inhibitor, full curve, poor fit].

`COc1ccc(CNC(=O)COc2cc(O)c3c(c2)OC(C)(C)CC3=O)cc1` was tested. Which Potency did it give?
Its Potency is inconclusive [inhibitor, full curve].

How did the Potency turn out when `CCOC(=O)C(C)Sc1nnc(Cc2cc(=O)[nH]c(=O)[nH]2)n1-c1cccc(OC)c1` (centres undefined) was run?
The Potency was inconclusive [inhibitor, full curve, poor fit].

`Cc1nc(NCc2ccccn2)c2ccccc2n1` was tested. Which “activity change, negative = inhibition” value did it give?
Its value is inactive: 1.59%.

Which Potency does the source give for `O=c1c2ccccc2nc(/C=C/c2cccc([N+](=O)[O-])c2)n1CCO` here?
The Potency was inconclusive [inhibitor, partial curve].

Which “activity change, negative = inhibition” value does the source give for `COc1cccc(NC(=O)CN(C)CC(=O)Nc2ccc(Br)cc2)c1` here?
Its value is inactive: -9.47%.

For `Cn1c(N)c(C(=O)COC(=O)C2=COCCO2)c(=O)n(C)c1=O`, which Potency is on record?
Its Potency is inconclusive [inhibitor, single point].

With `O=C(NCc1cccs1)c1cc(C2CC2)on1` as the molecule, how does the Potency read?
Its Potency is inconclusive [inhibitor, partial curve, poor fit].
